In publication PMC8354638:
Where two headings read alike, the source gives them in different places. No constants are given. Whether binding was seen depends on the method and setting. Binding seen in cells or lysates may run through a third protein. Some entries that bind do so weakly or less than the wild type. Tags and fused reporters may be left off the sequences shown. One block for each molecule: values may come before it.

Chains of the proteins cited; added tags and fusions are not shown.
UniProt Q9Y4B6: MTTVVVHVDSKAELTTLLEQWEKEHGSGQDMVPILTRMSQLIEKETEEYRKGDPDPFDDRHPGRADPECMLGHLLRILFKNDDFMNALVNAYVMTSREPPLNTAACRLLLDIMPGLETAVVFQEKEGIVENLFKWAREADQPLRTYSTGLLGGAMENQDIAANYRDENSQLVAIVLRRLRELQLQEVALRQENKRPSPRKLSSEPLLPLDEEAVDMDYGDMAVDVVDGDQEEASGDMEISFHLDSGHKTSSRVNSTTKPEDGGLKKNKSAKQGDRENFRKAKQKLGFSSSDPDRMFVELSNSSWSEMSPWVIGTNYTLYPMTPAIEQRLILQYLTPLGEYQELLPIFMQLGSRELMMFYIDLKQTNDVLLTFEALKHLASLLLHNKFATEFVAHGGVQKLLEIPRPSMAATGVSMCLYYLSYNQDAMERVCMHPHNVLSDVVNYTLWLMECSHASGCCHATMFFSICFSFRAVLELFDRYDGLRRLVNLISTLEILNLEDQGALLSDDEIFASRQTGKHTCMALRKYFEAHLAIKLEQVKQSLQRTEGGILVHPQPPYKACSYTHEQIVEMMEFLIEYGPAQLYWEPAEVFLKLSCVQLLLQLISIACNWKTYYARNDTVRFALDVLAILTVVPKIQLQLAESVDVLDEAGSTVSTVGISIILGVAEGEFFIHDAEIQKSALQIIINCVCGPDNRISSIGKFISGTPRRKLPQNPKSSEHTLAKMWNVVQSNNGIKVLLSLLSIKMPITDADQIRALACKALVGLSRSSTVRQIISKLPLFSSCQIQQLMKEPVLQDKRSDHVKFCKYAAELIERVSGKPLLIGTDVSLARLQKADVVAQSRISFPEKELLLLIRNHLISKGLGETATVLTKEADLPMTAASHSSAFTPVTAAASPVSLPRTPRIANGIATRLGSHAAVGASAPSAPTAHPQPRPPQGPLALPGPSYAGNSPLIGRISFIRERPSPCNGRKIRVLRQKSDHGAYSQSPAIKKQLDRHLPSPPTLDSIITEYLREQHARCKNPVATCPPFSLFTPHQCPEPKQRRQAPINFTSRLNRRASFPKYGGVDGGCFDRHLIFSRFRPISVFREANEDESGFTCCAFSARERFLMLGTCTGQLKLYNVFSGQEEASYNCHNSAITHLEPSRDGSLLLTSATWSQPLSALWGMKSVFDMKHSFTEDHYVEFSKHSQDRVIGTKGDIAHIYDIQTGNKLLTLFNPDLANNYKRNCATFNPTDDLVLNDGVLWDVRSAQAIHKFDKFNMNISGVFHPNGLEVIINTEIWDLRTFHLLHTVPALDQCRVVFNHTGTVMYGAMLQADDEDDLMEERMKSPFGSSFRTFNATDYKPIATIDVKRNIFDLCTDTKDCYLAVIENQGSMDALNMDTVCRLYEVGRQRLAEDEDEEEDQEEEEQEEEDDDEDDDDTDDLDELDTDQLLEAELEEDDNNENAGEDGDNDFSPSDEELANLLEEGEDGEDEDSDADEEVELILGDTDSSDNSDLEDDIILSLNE

What was measured:
FLAG-CEP78 (human) [1] = target: T1, FLAG-CEP78 (human) (UniProt Q5JTW2); test: co-IP; transfected 293T cell lysates (modified EBC buffer), IP with anti-FLAG beads, western blot of the pellets
T1 sequence: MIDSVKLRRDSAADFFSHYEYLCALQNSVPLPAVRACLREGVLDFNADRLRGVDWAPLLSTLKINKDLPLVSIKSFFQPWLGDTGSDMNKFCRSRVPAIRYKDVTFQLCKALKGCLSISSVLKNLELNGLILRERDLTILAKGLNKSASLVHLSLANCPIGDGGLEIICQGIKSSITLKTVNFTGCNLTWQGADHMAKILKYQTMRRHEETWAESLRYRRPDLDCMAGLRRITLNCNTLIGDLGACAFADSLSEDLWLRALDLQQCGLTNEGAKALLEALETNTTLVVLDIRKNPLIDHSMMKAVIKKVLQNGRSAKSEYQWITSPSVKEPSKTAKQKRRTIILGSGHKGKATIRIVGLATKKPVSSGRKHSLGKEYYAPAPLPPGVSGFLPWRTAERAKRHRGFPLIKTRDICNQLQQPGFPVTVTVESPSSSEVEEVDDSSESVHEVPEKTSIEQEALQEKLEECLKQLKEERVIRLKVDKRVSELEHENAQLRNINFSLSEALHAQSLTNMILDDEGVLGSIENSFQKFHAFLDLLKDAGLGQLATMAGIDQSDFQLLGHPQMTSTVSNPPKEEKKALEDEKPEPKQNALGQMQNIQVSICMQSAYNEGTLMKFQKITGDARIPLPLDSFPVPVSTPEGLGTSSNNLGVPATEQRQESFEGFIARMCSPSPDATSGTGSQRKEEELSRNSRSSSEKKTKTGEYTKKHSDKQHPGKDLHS

[2] = target: T2, Myc-CEP350 N-terminus (aa1-983) (human) (UniProt Q5VT06); test: co-IP; transfected 293T cell lysates (modified EBC buffer), IP with Myc antibody-coated beads, western blot with VPRBP, Myc, FOP or GFP antibodies
T2 sequence: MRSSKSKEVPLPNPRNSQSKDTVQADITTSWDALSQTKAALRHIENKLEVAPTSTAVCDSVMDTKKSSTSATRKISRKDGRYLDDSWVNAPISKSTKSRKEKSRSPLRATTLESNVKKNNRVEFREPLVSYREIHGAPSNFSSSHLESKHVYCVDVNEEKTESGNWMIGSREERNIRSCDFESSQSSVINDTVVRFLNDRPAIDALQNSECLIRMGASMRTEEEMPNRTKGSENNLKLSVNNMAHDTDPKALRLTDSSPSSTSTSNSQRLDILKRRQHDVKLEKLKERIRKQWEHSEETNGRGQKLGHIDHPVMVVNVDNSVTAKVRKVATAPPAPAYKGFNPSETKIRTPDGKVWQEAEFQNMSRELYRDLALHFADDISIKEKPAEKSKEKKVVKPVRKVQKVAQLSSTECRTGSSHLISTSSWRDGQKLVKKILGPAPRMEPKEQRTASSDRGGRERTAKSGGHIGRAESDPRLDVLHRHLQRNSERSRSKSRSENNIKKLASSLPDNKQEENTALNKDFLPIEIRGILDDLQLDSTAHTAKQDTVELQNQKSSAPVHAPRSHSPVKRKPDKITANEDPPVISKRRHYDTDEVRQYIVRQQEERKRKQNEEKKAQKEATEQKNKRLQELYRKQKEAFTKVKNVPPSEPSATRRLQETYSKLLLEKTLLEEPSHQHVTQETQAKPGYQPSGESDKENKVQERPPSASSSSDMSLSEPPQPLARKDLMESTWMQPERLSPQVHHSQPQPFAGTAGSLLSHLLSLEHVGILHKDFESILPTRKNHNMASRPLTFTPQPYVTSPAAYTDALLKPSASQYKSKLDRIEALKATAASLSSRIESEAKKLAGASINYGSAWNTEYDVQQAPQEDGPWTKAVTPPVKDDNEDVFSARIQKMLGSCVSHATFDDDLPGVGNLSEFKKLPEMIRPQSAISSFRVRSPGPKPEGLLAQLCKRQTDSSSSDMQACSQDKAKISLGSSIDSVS

GFP-CEP78 (human) = target: T3, GFP-CEP78 (human) (UniProt Q5JTW2); test: co-IP; transfected 293T cell lysates (modified EBC buffer), IP with GFP antibody beads, western blot with Myc, GFP, FOP or VPRBP antibodies
T3 sequence: T1 sequence

[3] = target: T4, Myc-CEP350 C-terminus (aa2990-3117) (human) (UniProt Q5VT06); test: co-IP; transfected 293T cell lysates (modified EBC buffer), IP with Myc antibody-coated beads, western blot with VPRBP, Myc, FOP or GFP antibodies
T4 sequence: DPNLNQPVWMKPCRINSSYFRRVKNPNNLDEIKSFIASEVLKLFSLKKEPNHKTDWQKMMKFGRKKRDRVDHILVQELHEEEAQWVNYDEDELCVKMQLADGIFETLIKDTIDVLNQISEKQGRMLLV

FLAG-CEP78 (human) [4] = target: T1, FLAG-CEP78 (human); test: co-IP; transfected 293T cell lysates (modified EBC buffer), IP with anti-FLAG beads, western blot of the pellets; remark: listed apart in the source

Molecule: Myc-VPRBP (from UniProt Q9Y4B6 1-1507)
binding (FLAG-CEP78 (human) [1]): binds

B1: endogenous FOP (protein, UniProt O95684 1-399)
chain: MAATAAAVVAEEDTELRDLLVQTLENSGVLNRIKAELRAAVFLALEEQEKVENKTPLVNESLKKFLNTKDGRLVASLVAEFLQFFNLDFTLAVFQPETSTLQGLEGRENLARDLGIIEAEGTVGGPLLLEVIRRCQQKEKGPTTGEGALDLSDVHSPPKSPEGKTSAQTTPSKIPRYKGQGKKKTSGQKAGDKKANDEANQSDTSVSLSEPKSKSSLHLLSHETKIGSFLSNRTLDGKDKAGLCPDEDDMEGDSFFDDPIPKPEKTYGLRKEPRKQAGSLASLSDAPPLKSGLSSLAGAPSLKDSESKRGNTVLKDLKLISDKIGSLGLGTGEDDDYVDDFNSTSHRSEKSEISIGEEIEEDLSVEIDDINTSDKLDDLTQDLTVSQLSDVADYLEDVA
binding [3]: binds
binding (GFP-CEP78 (human)): no binding

B3: GFP-CEP78 (protein, UniProt Q5JTW2-2 1-722)
chain: T1 sequence
binding [2]: binds

Further lines, results first:

binding [2]: no binding
binding (GFP-CEP78 (human)): binds
Molecule: endogenous VPRBP (from UniProt Q9Y4B6 1-1507)

binding (FLAG-CEP78 (human) [4]): binds
B2: FLAG-CEP78 (protein, UniProt Q5JTW2-2 1-722)
chain: T1 sequence
